Data reported in the supplement of paper PMC12355420.
Counter-ions that a name gives are not always drawn. This is one part of the list. Cut-off read from the data, not from the text of the source: active = 0.5 or less and inactive = the rest. Single values are uncertain, as repeats are few or missing.

Columns and labels:
Details in all cases: 50 µM; 24 h
[1] = system: HeLa VPS33A reporter cells; experiment: relative cell viability (CellMask signal) vs DMSO (fraction of DMSO); higher = less cytotoxic;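 note: primary screen of an FDA-approved drug library in HeLa reporter cells in 96-well format, CellMask signal normalized to DMSO-treated wells set as 1, under 0.5 deemed highly cytotoxic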
[2] = system: HeLa VPS33A R498W KI + HA-SDC1-FLAG; experiment: relative GAG core protein HA-SDC1 amount per cell number vs DMSO (fraction of DMSO); higher = more SDC1 (GAG core protein);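 note: HA-SDC1 level read out by In-Cell Western staining with an anti-HA antibody against the N-terminal tag, screening FDA-approved library drugs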
[3] = system: HeLa VPS33A KO + NLuc-VPS33A R498W; experiment: relative mutant VPS33A R498W amount (NanoLuc luminescence) vs DMSO (fraction of DMSO); HeLa model of a glycosaminoglycan (GAG) storage disease; KI is knock-in and KO knock-out; SDC1 is syndecan 1; higher = higher mutant VPS33A level;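 note: screen of an FDA-approved drug library, NanoLuc luminescence read after lysing the treated cells, taken as a measure of mutant VPS33A protein stability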

SMILES	relative cell viability [1]	relative GAG core protein HA-SDC1 amount per cell number [2]	relative mutant VPS33A R498W amount [3]
CS(=O)(=O)CCNCc1ccc(-c2ccc3ncnc(Nc4ccc(OCc5cccc(F)c5)c(Cl)c4)c3c2)o1 [Lapatinib ditosylate*]	0.912	inactive: 0.814	0.00724
NCC(=O)O [Glycine]	1.02	inactive: 1.01	1.05
CC(=O)NC[C@H]1CN(c2ccc(N3CCOCC3)c(F)c2)C(=O)O1 [Linezolid]	1.01	inactive: 1.21	1.25
CC(=O)OCC(=O)NCCCOc1cccc(CN2CCCCC2)c1 [Roxatidine Acetate HCl]	1.04	inactive: 1.24	1.48
COc1ccc(/C=C\c2cc(OC)c(OC)c(OC)c2)cc1OP(=O)(O)O [Fosbretabulin (Combretastatin A4 Phosphate (CA4P)) Disodium]	0.567	inactive: 0.647	0.612
OCc1ccccc1O[C@@H]1O[C@H](CO)[C@@H](O)[C@H](O)[C@H]1O [D-(-)-Salicin]	1.02	inactive: 0.961	1.33
Cc1ccc(C(C)C)c(O)c1 [Thymol]	0.98	inactive: 0.94	1.36
NCCc1c[nH]cn1 [Histamine 2HCl]	1.07	inactive: 1.07	1.49
C[C@H](Cc1cc2c(c(C(N)=O)c1)N(CCCO)CC2)NCCOc1ccccc1OCC(F)(F)F [Silodosin]	1.14	inactive: 0.782	0.616
COc1ccccc1OCC(O)CO (stereo not drawn) [Guaifensin]	1.08	inactive: 1.27	1.01
CCCCC[C@H](O)/C=C/[C@H]1[C@H](O)CC(=O)[C@@H]1CCCCCCC(=O)O [Alprostadil]	1.01	inactive: 0.877	2.09
